Experimental data as given in patent EP4692105A1, “CYCLIC POLYPEPTIDE COMPOUND AND USE THEREOF” (Bivision Pharmaceuticals, Inc, priority 2023, dated 2024).
At least one structure is not confirmed: it was looked up by name or label, or the drawing left a doubt. Numbered stars: 1 amine (or outer) side, 2 acyl side, 3 side chain; on linkers, the order of the positions; unused ones are H or OH. Bridge positions count the residues as written; N and C are the ends. Square brackets hold non-standard residues; d marks the D form. Peptide text beside a SMILES is read from it. * marks the point of attachment. NH(CH2)2O(CH2)2NHDOTA = O=C(O)CN1CCN(CC(=O)O)CCN(CC(=O)NCCOCCN*)CCN(CC(=O)O)CC1; mXylylene = c1cc(C[*:1])cc(C[*:2])c1; Cha = N[C@@H](CC1CCCCC1)C(=O)O; Aze = O=C(O)[C@@H]1CCN1; Hexanoyl = CCCCCC(=O)*

Each compound was assayed against T1, FAP protein (Homo sapiens, UniProt Q12884) (assay: Biacore (SPR) test of compound affinity to FAP protein). Details: Biacore 8K, SA chip, 15 °C, single cycle, 1:1 binding model; pKD = -LogKD.
T1 construct: purchased Sinobiological
T1 sequence (Q12884 1-760): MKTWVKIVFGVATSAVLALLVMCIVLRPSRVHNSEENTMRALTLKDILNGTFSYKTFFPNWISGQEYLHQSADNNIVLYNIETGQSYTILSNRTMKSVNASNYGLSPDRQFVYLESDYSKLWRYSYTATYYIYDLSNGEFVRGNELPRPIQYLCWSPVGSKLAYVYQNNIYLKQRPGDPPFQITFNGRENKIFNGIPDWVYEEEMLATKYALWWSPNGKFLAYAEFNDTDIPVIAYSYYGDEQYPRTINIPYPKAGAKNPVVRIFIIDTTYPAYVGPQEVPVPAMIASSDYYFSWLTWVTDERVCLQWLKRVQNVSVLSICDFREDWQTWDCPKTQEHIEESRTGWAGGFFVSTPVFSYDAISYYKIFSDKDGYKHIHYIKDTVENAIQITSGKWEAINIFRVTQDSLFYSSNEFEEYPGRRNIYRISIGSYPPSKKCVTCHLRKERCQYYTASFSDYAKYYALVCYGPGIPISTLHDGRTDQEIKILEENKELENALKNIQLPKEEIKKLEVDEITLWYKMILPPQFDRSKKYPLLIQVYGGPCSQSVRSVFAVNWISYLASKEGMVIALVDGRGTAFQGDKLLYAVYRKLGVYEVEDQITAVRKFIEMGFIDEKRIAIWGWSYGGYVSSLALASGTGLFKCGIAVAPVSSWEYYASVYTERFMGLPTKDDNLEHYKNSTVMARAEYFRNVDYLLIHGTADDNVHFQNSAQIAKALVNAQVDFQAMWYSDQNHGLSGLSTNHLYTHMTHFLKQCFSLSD
Procedure: The Biacore 8K (Cytiva) instrument was used to detect ligand binding of the FAP protein (Sinobiological). FAP protein was captured on the SA chip. Prior to ligand immobilization (flow paths 1 and 2, flow rate of 10 µL/min), FAP protein (10 µg/mL, flow rate of 5 µL/min, injection time of 600 s) was immobilized on flow path 2 using running buffer. The sensor surface was conditioned by injecting 1M NaCl three consecutive times in 50 mM NaOH. After each ligand injection, additional cleaning was performed using isopropanol in 1M NaCl and 50 mM NaOH (flow path 1 and 2, flow rate of 10 µL/min, injection time of 60 s).
The tested compound was dissolved in 100% dimethyl sulfoxide and diluted to 10 mM, then diluted in the assay buffer (PBS, pH 7.4, 1 mM TCEP ([…]), 0.05% P20, 2% dimethyl sulfoxide) to an appropriate maximum concentration. The analyte was run under the following conditions: analysis temperature of 15 °C, analysis step = all set to LMW kinetics; cycle type = single cycle (contact time of 90 s, dissociation time of 1800 s, flow rate of 30 µL/min, flow channels 1 and 2); channel detection = 2-1. Data was evaluated using the Biacore Insight Evaluation Software, and the data were fitted to a 1:1 binding model.
The Biacore results are shown in Table 2 below: pKD = -LogKD, where KD is the binding affinity of the compound to the FAP protein as measured by Biacore.

| Compound | pKD (FAP) |
| --- | --- |
| CCCCCC(=O)N[C@H]1CSCc2cccc(c2)CSC[C@@H](C(=O)N[C@@H](CCC(=O)NCCOCCNC(=O)CN2CCN(CC(=O)O)CCN(CC(=O)O)CCN(CC(=O)O)CC2)C(=O)O)NC(=O)[C@H](CC2CCCCC2)NC(=O)[C@H](CCC(N)=O)NC(=O)[C@H]([C@@H](C)O)NC(=O)[C@@H]2CCCN2C(=O)[C@@H]2CCN2C1=O [JHDC05, Hex[Cys(3MeBn)-hhy39-Pro-Thr-Gln-hhy34-Cys]-Glu-(DAPEG2-DOTA)-OH] (Hexanoyl-C[Aze]PTQ[Cha]CE(NH(CH2)2O(CH2)2NHDOTA)-OH; linker 1-7 via mXylylene) | A (A: pKD >8) |
| CCCCCC(=O)N[C@H]1CSCc2cccc(c2)CSC[C@@H](C(=O)N[C@@H](CCC(=O)NCCOCCNC(=O)CN2CCN(CC(=O)O)CCN(CC(=O)O)CCN(CC(=O)O)CC2)C(=O)O)NC(=O)[C@H](Cc2ccccc2)NC(=O)[C@H](CCC(N)=O)NC(=O)[C@H]([C@@H](C)O)NC(=O)[C@@H]2CCCN2C(=O)[C@@H]2CCN2C1=O [JHDC06, Hex[Cys(3MeBn)-hhy39-Pro-Thr-Gln-Phe-Cys]-Glu-(DAPEG2-DOTA)-OH] | A (A: pKD >8) |
| CCCCCC(=O)N[C@H]1CSCc2cccc(c2)CSC[C@@H](C(=O)N[C@@H](CCC(=O)NCCOCCNC(=O)CN2CCN(CC(=O)O)CCN(CC(=O)O)CCN(CC(=O)O)CC2)C(=O)O)NC(=O)[C@H](CC2CCCCC2)NC(=O)CNC(=O)[C@H](CCC(N)=O)NC(=O)[C@H]([C@@H](C)O)NC(=O)[C@@H]2CCCN2C(=O)[C@@H]2CCN2C1=O [JHDC09, Hex[Cys(3MeBn)-hhy39-Pro-Thr-Gln-Gly-hhy34-Cys]-Glu-(DAPEG2-DOTA)-OH] (Hexanoyl-C[Aze]PTQG[Cha]CE(NH(CH2)2O(CH2)2NHDOTA)-OH; linker 1-8 via mXylylene) | B (B: 7<pKD<8) |
| CCCCCC(=O)N[C@H]1CCCCn2cc(nn2)CSC[C@@H](C(=O)N[C@@H](CCCCNC(=O)COCCNC(=O)CN2CCN(CC(=O)O)CCN(CC(=O)O)CCN(CC(=O)O)CC2)C(=O)O)NC(=O)[C@H](Cc2ccccc2)NC(=O)[C@H](CCC(N)=O)NC(=O)[C@H]([C@@H](C)O)NC(=O)[C@@H]2CCCN2C(=O)[C@@H]2CCN2C1=O [JHDC12, Hex[2AHA(Triazole)-hhy39-Pro-Thr-Gln-Phe-CSMC]-Lys-(AEAA-DOTA)-OH] | B (B: 7<pKD<8) |
| CCCCCC(=O)N[C@H]1CSCCSC[C@@H](C(=O)N[C@@H](CCC(=O)NCCOCCNC(=O)CN2CCN(CC(=O)O)CCN(CC(=O)O)CCN(CC(=O)O)CC2)C(=O)O)NC(=O)[C@H](Cc2ccccc2)NC(=O)[C@H](CCC(N)=O)NC(=O)[C@H]([C@@H](C)O)NC(=O)[C@@H]2CCCN2C(=O)[C@@H]2CCN2C1=O [JHDC27, Hex[Cys(ethylene)-hhy39-Pro-Thr-Gln-Phe-Cys]-Glu-(DAPEG2-DOTA)-OH] | B (B: 7<pKD<8) |
| CCCCNC(=O)N[C@H]1CSCc2cccc(c2)CSC[C@@H](C(=O)N[C@@H](CCC(=O)NCCCCCNC(=O)CN2CCN(CC(=O)O)CCN(CC(=O)O)CCN(CC(=O)O)CC2)C(=O)O)NC(=O)[C@H](Cc2ccccc2)NC(=O)[C@H](CCC(N)=O)NC(=O)[C@H]([C@@H](C)O)NC(=O)[C@@H]2CCCN2C(=O)[C@@H]2CCN2C1=O [JHDC28, nBu-urea-[Cys(3MeBn)-hhy39-Pro-Thr-Gln-Phe-Cys]-Glu-(PDA-DOTA)-OH] | B (B: 7<pKD<8) |
| CCCCCC(=O)N[C@H]1CSCc2cccc(c2)CSC[C@@H](C(=O)N[C@@H](CCC(=O)NCCCCCNC(=O)CN2CCN(CC(=O)O)CCN(CC(=O)O)CCN(CC(=O)O)CC2)C(=O)O)NC(=O)[C@H](Cc2ccccc2)NC(=O)[C@H](CCC(N)=O)NC(=O)[C@H]([C@@H](C)O)NC(=O)[C@@H]2CCCN2C(=O)[C@@H]2CCN2C1=O [JHDC29, Hex[Cys(3MeBn)-hhy39-Pro-Thr-Gln-Phe-Cys]-Glu-(PDA-DOTA)-OH] | B (B: 7<pKD<8) |
| CCCCCC(=O)N[C@H]1CSSC[C@@H](C(=O)N[C@@H](CCC(=O)NCCOCCNC(=O)CN2CCN(CC(=O)O)CCN(CC(=O)O)CCN(CC(=O)O)CC2)C(=O)O)NC(=O)[C@H](Cc2ccccc2)NC(=O)[C@H](CCC(N)=O)NC(=O)[C@H]([C@@H](C)O)NC(=O)[C@@H]2CCCN2C(=O)[C@@H]2CCN2C1=O [JHDC30, Hex[Cys(SS)-hhy39-Pro-Thr-Gln-Phe-Cys]-Glu-(DAPEG2-DOTA)-OH] | B (B: 7<pKD<8) |
| CCCCNC(=O)N[C@H]1CSSC[C@@H](C(=O)N[C@@H](CCC(=O)NCCOCCNC(=O)CN2CCN(CC(=O)O)CCN(CC(=O)O)CCN(CC(=O)O)CC2)C(=O)O)NC(=O)[C@H](Cc2ccccc2)NC(=O)[C@H](CCC(N)=O)NC(=O)[C@H]([C@@H](C)O)NC(=O)[C@@H]2CCCN2C(=O)[C@@H]2CCN2C1=O [JHDC31, nBu-urea-[Cys(SS)-hhy39-Pro-Thr-Gln-Phe-Cys]-Glu-(DAPEG2-DOTA)-OH] | B (B: 7<pKD<8) |
| CCCCCC(=O)N[C@H]1CSCc2cccc(n2)CSC[C@@H](C(=O)N[C@@H](CCC(=O)NCCOCCNC(=O)CN2CCN(CC(=O)O)CCN(CC(=O)O)CCN(CC(=O)O)CC2)C(=O)O)NC(=O)[C@H](Cc2ccccc2)NC(=O)[C@H](CCC(N)=O)NC(=O)[C@H]([C@@H](C)O)NC(=O)[C@@H]2CCCN2C(=O)[C@@H]2CCN2C1=O [JHDC32, Hex[Cys(3MePy)-hhy39-Pro-Thr-Gln-Phe-Cys]-Glu-(DAPEG2-DOTA)-OH] | B (B: 7<pKD<8) |
| CCCCNC(=O)N[C@H]1CSCc2cccc(n2)CSC[C@@H](C(=O)N[C@@H](CCC(=O)NCCOCCNC(=O)CN2CCN(CC(=O)O)CCN(CC(=O)O)CCN(CC(=O)O)CC2)C(=O)O)NC(=O)[C@H](Cc2ccccc2)NC(=O)[C@H](CCC(N)=O)NC(=O)[C@H]([C@@H](C)O)NC(=O)[C@@H]2CCCN2C(=O)[C@@H]2CCN2C1=O [JHDC33, nBu-urea-[Cys(3MePy)-hhy39-Pro-Thr-Gln-Phe-Cys]-Glu-(DAPEG2-DOTA)-OH] | B (B: 7<pKD<8) |
| CCCCNC(=O)N[C@H]1CSCc2cccc(c2)CSC[C@@H](C(=O)NC(CC(=O)O)CC(=O)NCCOCCNC(=O)CN2CCN(CC(=O)O)CCN(CC(=O)O)CCN(CC(=O)O)CC2)NC(=O)[C@H](Cc2ccccc2)NC(=O)[C@H](CCC(N)=O)NC(=O)[C@H]([C@@H](C)O)NC(=O)[C@@H]2CCCN2C(=O)[C@@H]2CCN2C1=O (stereo partly drawn) [JHDC34, nBu-urea-[Cys(3MeBn)-hhy39-Pro-Thr-Gln-Phe-Cys]-β-Glu-(DAPEG2-DOTA)-OH] | B (B: 7<pKD<8) |
| CCCCNC(=O)N[C@H]1CSCc2cccc(c2)CSC[C@@H](C(=O)NC(CC(=O)O)CC(=O)NCCNC(=O)CN2CCN(CC(=O)O)CCN(CC(=O)O)CCN(CC(=O)O)CC2)NC(=O)[C@H](Cc2ccccc2)NC(=O)[C@H](CCC(N)=O)NC(=O)[C@H]([C@@H](C)O)NC(=O)[C@@H]2CCCN2C(=O)[C@@H]2CCN2C1=O (stereo partly drawn) [JHDC35, nBu-urea-[Cys(3MeBn)-hhy39-Pro-Thr-Gln-Phe-Cys]-β-Glu-(EDA-DOTA)-OH] | B (B: 7<pKD<8) |
| CCCCCC(=O)N[C@H]1CSCc2cccc(c2)CSC[C@@H](C(=O)NC(CC(=O)O)CC(=O)NCCOCCNC(=O)CN2CCN(CC(=O)O)CCN(CC(=O)O)CCN(CC(=O)O)CC2)NC(=O)[C@H](Cc2ccccc2)NC(=O)[C@H](CCC(N)=O)NC(=O)[C@H]([C@@H](C)O)NC(=O)[C@@H]2CCCN2C(=O)[C@@H]2CCN2C1=O (stereo partly drawn) [JHDC36, Hex-[Cys(3MeBn)-hhy39-Pro-Thr-Gln-Phe-Cys]-β-Glu-(DAPEG2-DOTA)-OH] | B (B: 7<pKD<8) |
